Measured values from the supplement of paper PMC9588766.
Structures can show the parent of a compound that is named as a salt. ± gives the standard deviation of the averaged measurements. Over roughly 2,000 compounds, “cell viability relative to DMSO control (compound alone)” has its median near 0.98; the lowest 2% begin near 0.23. This is one part of the list.

Test system: PDC-DUC18828
Assay: cell viability relative to DMSO control (compound alone) (fraction); PDC-DUC18828 is a patient-derived cholangiocarcinoma cell line; higher = less growth inhibition
Conditions: 1 µM; 72 h
Experimental: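 Selleck Bioactive library screen in the patient-derived FGFR2-G3BP2 fusion-positive ICC cell line PDC-DUC18828 (500 cells/well). Each compound was tested at 1 uM alone, in triplicate, for 72 h. Viability was read by CellTiter-Glo and normalised to plate DMSO controls.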

| SMILES | cell viability |
| --- | --- |
| Cc1cccc([C@H](C)c2c[nH]cn2)c1C [Dexmedetomidine] | 0.973 ± 0.037 |
| CC(=O)Nc1ccc(OC[C@](C)(O)C(=O)Nc2ccc([N+](=O)[O-])c(C(F)(F)F)c2)cc1 [Andarine] | 0.891 ± 0.044 |
| C[C@](O)(COc1ccc(C#N)cc1)C(=O)Nc1ccc(C#N)c(C(F)(F)F)c1 | 1.05 ± 0.022 |
| C[C@]12N[C@H](Cc3ccccc31)c1ccccc12 [MK-801 (Dizocilpine)] | 0.971 ± 0.031 |
| C[C@]12CC[C@H]3[C@@H](CC[C@@]45O[C@@H]4C(O)=C(C#N)C[C@]35C)[C@@H]1CC[C@@H]2O [Trilostane] | 1.07 ± 0.026 |
| CC(C)N(CCNC(=O)CN1CCCC1=O)C(C)C [Pramiracetam] | 0.946 ± 0.063 |
| CNCC(=O)c1ccc(O)c(O)c1 [Adrenalone HCl] | 0.971 ± 0.024 |
| COC(=O)C1=CCCN(C)C1 [Arecoline] | 1.05 ± 0.064 |
| CCC1(c2ccc(N)cc2)CCC(=O)NC1=O (stereo unspecified) [Aminoglutethimide] | 1.02 ± 0.013 |
| CCN(C)C(=O)Oc1cccc([C@H](C)N(C)C)c1 [Rivastigmine Tartrate] | 1.07 ± 0.019 |
| CN(C)C(=O)Oc1cc(OC(=O)N(C)C)cc(C(O)CNC(C)(C)C)c1 (stereo unspecified) [Bambuterol HCl] | 1.01 ± 0.04 |
| C[N+]1(C)[C@@H]2C[C@@H](OC(=O)[C@H](CO)c3ccccc3)C[C@H]1[C@@H]1O[C@@H]12 [Methscopolamine] | 0.996 ± 0.022 |
| C[C@]12CC[C@H](O)C[C@@H]1CC[C@@H]1[C@@H]2CC[C@]2(C)C(=O)CC[C@@H]12 [Epiandrosterone] | 0.985 ± 0.042 |
| NCC(O)c1ccc(O)cc1 (racemic) [(+,-)-Octopamine HCl] | 1.06 ± 0.071 |
| C[C@@H]1O[C@@H](O[C@H]2C[C@@H](O)[C@]3(CO)[C@H]4[C@H](O)C[C@]5(C)[C@@H](C6=CC(=O)OC6)CC[C@]5(O)[C@@H]4CC[C@]3(O)C2)[C@H](O)[C@H](O)[C@H]1O [Ouabain] | 0.127 ± 0.0066 |
| CN(C)Cc1c[nH]c2ccccc12 [Gramine] | 0.919 ± 0.044 |
| O=C(O)CCCc1ccc(N(CCCl)CCCl)cc1 [Chloroambucil] | 0.878 ± 0.054 |
| CC[C@@H](C(N)=O)N1CCCC1=O [Levetiracetam] | 0.932 ± 0.011 |
| O=C(O[C@H]1C[C@H]2CC[C@@H](C1)[N+]21CCCC1)C(O)(c1ccccc1)c1ccccc1 [Trospium chloride] | 0.8822 ± 0.0019 |
| COc1ccc(C(=O)N2CCCC2=O)cc1 [Aniracetam] | 0.937 ± 0.052 |
| COc1cc([C@@H]2c3cc4c(cc3[C@H](O)[C@H]3COC(=O)[C@@H]23)OCO4)cc(OC)c1OC [Picropodophyllin (PPP)] | 0.499 ± 0.015 |
| C1=C2CCCN[C@H]2[C@@H]2C[C@H]1[C@H]1CCCCN1C2 [Aloperine] | 0.836 ± 0.079 |
| CN1CCC(c2c[nH]c3ccc(O)cc23)CC1 | 0.962 ± 0.024 |
| NC(=O)CN1CC(O)CC1=O (stereo unspecified) [Oxiracetam] | 0.965 ± 0.083 |
| CC[C@@]1(O)C(=O)OCc2c1cc1n(c2=O)Cc2cc3ccccc3nc2-1 [Camptothecin] | 0.182 ± 0.014 |
| CN1c2ccccc2C(NCCCCCCC(=O)O)c2ccc(Cl)cc2S1(=O)=O (stereo unspecified) [Tianeptine sodium] | 0.968 ± 0.011 |

| SMILES | cell viability |
| --- | --- |
| CC(C)=CCC[C@]1(C)C=Cc2c(O)c3c(c(CC=C(C)C)c2O1)O[C@]12C(=C[C@@H]4C[C@H]1C(C)(C)O[C@@]2(C/C=C(/C)C(=O)O)C4=O)C3=O [Gambogic Acid] | 0.0678 ± 0.029 |
| CCNC(=O)C[C@@H]1N=C(c2ccc(Cl)cc2)c2cc(OC)ccc2-n2c(C)nnc21 | 0.882 ± 0.054 |
| C[N+](C)(C)CCCCCCCCCC[N+](C)(C)C [Decamethonium Bromide] | 0.997 ± 0.067 |
| O=C(O)CNC(=O)c1c(O)c2ccccc2n(Cc2ccccc2)c1=O | 1.02 ± 0.047 |
| CCCN1C[C@H](CSC)C[C@@H]2c3cccc4[nH]cc(c34)C[C@H]21 [Pergolide mesylate] | 0.982 ± 0.04 |
| CC(=O)Nc1ccc(Cc2ccc(NC(C)=O)cc2)cc1 | 1.06 ± 0.072 |
| COc1cc(-n2c(=S)[nH]c3ccccc3c2=O)c(Cl)cc1Cl [Mdivi-1] | 0.995 ± 0.022 |
| CC1=C(O)C(=O)C=C2C1=CC=C1[C@@]2(C)CC[C@@]2(C)[C@@H]3C[C@](C)(C(=O)O)CC[C@]3(C)CC[C@]12C [Celastrol] | 0.0883 ± 0.016 |
| C[C@H]1CCC/C=C/[C@@H]2C[C@H](O)C[C@H]2[C@H](O)/C=C/C(=O)O1 [Brefeldin A] | 0.0224 ± 0.00048 |
| Cc1cc(O)ccc1Cl [Chlorocresol] | 1.01 ± 0.017 |
| c1cc2c(cc1[C@H]1OC[C@H]3[C@@H]1CO[C@@H]3c1ccc3c(c1)OCO3)OCO2 [Sesamin] | 0.969 ± 0.055 |
| NCCc1ccc(S(=O)(=O)F)cc1 | 0.974 ± 0.08 |
| CN1[C@@H]2CC[C@H]1C[C@@H](OC(=O)[C@H](CO)c1ccccc1)C2 [Hyoscyamine] | 0.93 ± 0.013 |
| Nc1nc(N)nc(NC2CC2)n1 [Cyromazine] | 1.09 ± 0.043 |
| Fc1cc(F)c2c(c1)[C@H]1C=CC[C@H]1C(c1cccnc1)N2 (stereo partly specified) [Golgicide A] | 1.06 ± 0.034 |
| COC[C@H]1OC(=O)c2coc3c2[C@@]1(C)C1=C(C3=O)[C@@H]2CCC(=O)[C@@]2(C)C[C@H]1OC(C)=O [Wortmannin] | 0.8 ± 0.028 |
| C=C[C@H]1CN2CC[C@H]1C[C@H]2[C@H](O)c1ccnc2ccccc12 [Cinchonidine] | 1.02 ± 0.13 |
| Cc1cccc(C(C)c2c[nH]cn2)c1C (stereo unspecified) [Medetomidine HCl] | 0.923 ± 0.085 |
| C=CC[C@]1(O)CC[C@H]2[C@@H]3CCC4=CC(=O)CCC4=C3C=C[C@@]21C [Altrenogest] | 0.96 ± 0.039 |
| C/C(=C\c1csc(C)n1)[C@@H]1C[C@@H]2O[C@]2(C)CCC[C@H](C)[C@H](O)[C@@H](C)C(=O)C(C)(C)[C@@H](O)CC(=O)O1 [Epothilone B (EPO906, Patupilone)] | 0.265 ± 0.021 |
| O=c1[nH]c2ccccc2n1CCCN1CCC(n2c(=O)[nH]c3cc(Cl)ccc32)CC1 [Domperidone] | 0.905 ± 0.043 |
| CN1[C@@H]2CC(O)C[C@H]1[C@@H]1O[C@@H]12 (stereo partly specified) [Scopine] | 0.99 ± 0.04 |
| O=S(=O)(CC1CS1)c1ccc(Oc2ccccc2)cc1 (stereo unspecified) | 1.02 ± 0.06 |
| CC1(C)CC(O)CC(C)(C)N1[O] [Tempol] | 1.03 ± 0.048 |
| Cn1c(CCCC(=O)O)nc2cc(N(CCCl)CCCl)ccc21 [Bendamustine HCl] | 0.986 ± 0.069 |
